T1: human GITR-His (human, UniProt Q9Y5U5 26-161)
T1 construct: Bought from Acro biosystems; also called GITR-His (Acro biosystems); antigen GITR-His
T1 sequence: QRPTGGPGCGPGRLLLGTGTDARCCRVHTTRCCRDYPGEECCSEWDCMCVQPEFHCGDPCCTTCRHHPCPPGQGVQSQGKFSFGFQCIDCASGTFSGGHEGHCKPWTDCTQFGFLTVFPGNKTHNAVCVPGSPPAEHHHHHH


target: T1, human GITR-His; assay: ForteBio BLI, antibody on AHQ tip, human GITR-His 100 nM in solution
Experimental: (2) Experimental procedure: 100 μl of SD buffer and antibodies (hcIgG-02, hcIgG-03, hcIgG-04, hcIgG-07, hcIgG-09, hcIgG-10, hcIgG-16 and hcIgG-20, control antibody), GITR-His (Acro biosystems) were added to a 96-well half-volume black polystyrene microplate. The plate was arranged according to the positions of the samples, the position of the sensor was selected, and the operation procedures were set as: Baseline, Loading ˜1 nm, Baseline, Association and Dissociation, each running for a time depending on the binding and dissociation rates of the sample, at a rotation speed of 400 rpm and a temperature of 30° C.
In this experiment, kinetics and affinity for the antigen-antibody binding were determined using the ForteBio method in the same way as in Example 4.

Row | Binder | Kd [nM] | koff [s⁻¹] | kon [M⁻¹ s⁻¹]
1 | 4×Nb-IgG-I (antibody, Tetravalent form with four identical nanobody regions: VHH of HzhcIgG-20 linked to the C-terminus of HzhcIgG-20 via GGGGS; two identical chains; also called 4xNb-IgG-I) heavy: QVQLQESGGGLVQPGGSLRLSCAASGYSRTSRWMAWFRQAPGKGLEGVAAIYTGGSSTLYADSVKGRFTISRDNAKNSVYLQMNSLRAEDTAVYYCAADKLAGDFWLVDRWRAWGQGTLVTVSS[sequence of human IgG1 Fc not given]GGGGSQVQLQESGGGLVQPGGSLRLSCAASGYSRTSRWMAWFRQAPGKGLEGVAAIYTGGSSTLYADSVKGRFTISRDNAKNSVYLQMNSLRAEDTAVYYCAADKLAGDFWLVDRWRAWGQGTLVTVSS | 4.6 | 0.000636 | 138000
2 | 4×Nb-IgG-II (antibody, Tetravalent form with four identical nanobody regions: VHH of HzhcIgG-20 linked to the N-terminus of HzhcIgG-20 via GGGGS; two identical chains; also called 4xNb-IgG-II) heavy: QVQLQESGGGLVQPGGSLRLSCAASGYSRTSRWMAWFRQAPGKGLEGVAAIYTGGSSTLYADSVKGRFTISRDNAKNSVYLQMNSLRAEDTAVYYCAADKLAGDFWLVDRWRAWGQGTLVTVSSGGGGSQVQLQESGGGLVQPGGSLRLSCAASGYSRTSRWMAWFRQAPGKGLEGVAAIYTGGSSTLYADSVKGRFTISRDNAKNSVYLQMNSLRAEDTAVYYCAADKLAGDFWLVDRWRAWGQGTLVTVSS[sequence of human IgG1 Fc not given] | 8.65 | 0.000659 | 76200
3 | 4×Nb-IgG-III (antibody, Tetravalent form with four identical nanobody regions: VHH of HzhcIgG-20 linked directly to the N-terminus of HzhcIgG-20; two identical chains; also called 4xNb-IgG-III) heavy: QVQLQESGGGLVQPGGSLRLSCAASGYSRTSRWMAWFRQAPGKGLEGVAAIYTGGSSTLYADSVKGRFTISRDNAKNSVYLQMNSLRAEDTAVYYCAADKLAGDFWLVDRWRAWGQGTLVTVSSQVQLQESGGGLVQPGGSLRLSCAASGYSRTSRWMAWFRQAPGKGLEGVAAIYTGGSSTLYADSVKGRFTISRDNAKNSVYLQMNSLRAEDTAVYYCAADKLAGDFWLVDRWRAWGQGTLVTVSS[sequence of human IgG1 Fc not given] | 6.85 | 0.000655 | 95600
